The densities may have been worked out from excess volumes.
Assay: xn = mol fraction of the nth substance listed
Conditions: 96.7 kPa

Compound: OCC(F)(F)F + CC(=O)[O-].CC[n+]1ccn(C)c1
- mass density (293.15 K, x1 = 0.048): 1110.2 kg/m3
- mass density (293.15 K, x1 = 0.103): 1117.7 kg/m3
- mass density (293.15 K, x1 = 0.298): 1152.4 kg/m3
- mass density (293.15 K, x1 = 0.402): 1173.4 kg/m3
- mass density (293.15 K, x1 = 0.801): 1296.9 kg/m3
- mass density (293.15 K, x1 = 1): 1390.9 kg/m3
- mass density (298.15 K, x1 = 0.103): 1114.6 kg/m3
- mass density (298.15 K, x1 = 0.204): 1130.6 kg/m3
- mass density (298.15 K, x1 = 0.298): 1148.8 kg/m3
- mass density (298.15 K, x1 = 0.603): 1221 kg/m3
- mass density (298.15 K, x1 = 0.801): 1291.4 kg/m3
- mass density (298.15 K, x1 = 1): 1382.5 kg/m3
- mass density (303.15 K, x1 = 0.103): 1111.4 kg/m3
- mass density (303.15 K, x1 = 0.204): 1127.3 kg/m3
- mass density (303.15 K, x1 = 0.298): 1145.3 kg/m3
- mass density (303.15 K, x1 = 0.603): 1216.5 kg/m3
- mass density (303.15 K, x1 = 0.801): 1285.7 kg/m3
- mass density (303.15 K, x1 = 1): 1373.9 kg/m3
- mass density (308.15 K, x1 = 0.048): 1100.9 kg/m3
- mass density (308.15 K, x1 = 0.103): 1108.2 kg/m3
- mass density (308.15 K, x1 = 0.298): 1141.8 kg/m3
- mass density (308.15 K, x1 = 0.402): 1162.1 kg/m3
- mass density (308.15 K, x1 = 0.603): 1212 kg/m3
- mass density (308.15 K, x1 = 0.801): 1280.3 kg/m3
- mass density (308.15 K, x1 = 1): 1365.2 kg/m3
- mass density (313.15 K, x1 = 0.048): 1097.8 kg/m3
- mass density (313.15 K, x1 = 0.103): 1105.1 kg/m3
- mass density (313.15 K, x1 = 0.204): 1120.7 kg/m3
- mass density (313.15 K, x1 = 0.298): 1138.2 kg/m3
- mass density (313.15 K, x1 = 0.402): 1158.4 kg/m3
- mass density (313.15 K, x1 = 0.603): 1207.6 kg/m3
- mass density (318.15 K, x1 = 0.048): 1094.7 kg/m3
- mass density (318.15 K, x1 = 0.103): 1102 kg/m3
- mass density (318.15 K, x1 = 0.204): 1117.3 kg/m3
- mass density (318.15 K, x1 = 0.298): 1134.7 kg/m3
- mass density (318.15 K, x1 = 0.402): 1154.6 kg/m3
- mass density (318.15 K, x1 = 0.801): 1269.2 kg/m3
- mass density (318.15 K, x1 = 1): 1347.5 kg/m3
- mass density (323.15 K, x1 = 0.048): 1091.7 kg/m3
- mass density (323.15 K, x1 = 0.103): 1098.8 kg/m3
- mass density (323.15 K, x1 = 0.204): 1114 kg/m3
- mass density (323.15 K, x1 = 0.298): 1131.3 kg/m3
- mass density (323.15 K, x1 = 0.603): 1198.7 kg/m3
- mass density (323.15 K, x1 = 1): 1338.4 kg/m3
- mass density (328.15 K, x1 = 0.048): 1088.7 kg/m3
- mass density (328.15 K, x1 = 0.103): 1095.7 kg/m3
- mass density (328.15 K, x1 = 0.204): 1110.8 kg/m3
- mass density (328.15 K, x1 = 0.402): 1147.2 kg/m3
- mass density (328.15 K, x1 = 0.603): 1194.3 kg/m3
- mass density (328.15 K, x1 = 0.801): 1258.2 kg/m3
- mass density (328.15 K, x1 = 1): 1329.1 kg/m3
- mass density (333.15 K, x1 = 0.048): 1085.6 kg/m3
- mass density (333.15 K, x1 = 0.204): 1107.5 kg/m3
- mass density (333.15 K, x1 = 0.298): 1124.4 kg/m3
- mass density (333.15 K, x1 = 0.402): 1143.5 kg/m3
- mass density (333.15 K, x1 = 0.801): 1252.7 kg/m3

Compound: OCC(F)(F)F + CC[n+]1ccn(C)c1.O=S(=O)([N-]S(=O)(=O)C(F)(F)F)C(F)(F)F
- mass density (293.15 K, x1 = 0.099): 1520 kg/m3
- mass density (293.15 K, x1 = 0.204): 1516.2 kg/m3
- mass density (293.15 K, x1 = 0.599): 1488.5 kg/m3
- mass density (293.15 K, x1 = 1): 1390.9 kg/m3
- mass density (298.15 K, x1 = 0.051): 1516.8 kg/m3
- mass density (298.15 K, x1 = 0.099): 1514.9 kg/m3
- mass density (298.15 K, x1 = 0.204): 1511 kg/m3
- mass density (298.15 K, x1 = 0.303): 1506.1 kg/m3
- mass density (298.15 K, x1 = 0.396): 1500 kg/m3
- mass density (298.15 K, x1 = 0.599): 1482.7 kg/m3
- mass density (298.15 K, x1 = 0.799): 1451.7 kg/m3
- mass density (298.15 K, x1 = 1): 1382.5 kg/m3
- mass density (303.15 K, x1 = 0.051): 1511.8 kg/m3
- mass density (303.15 K, x1 = 0.099): 1509.8 kg/m3
- mass density (303.15 K, x1 = 0.204): 1505.8 kg/m3
- mass density (303.15 K, x1 = 0.303): 1500.9 kg/m3
- mass density (303.15 K, x1 = 0.396): 1494.5 kg/m3
- mass density (303.15 K, x1 = 0.799): 1445.1 kg/m3
- mass density (303.15 K, x1 = 1): 1373.9 kg/m3
- mass density (308.15 K, x1 = 0.051): 1506.7 kg/m3
- mass density (308.15 K, x1 = 0.099): 1504.8 kg/m3
- mass density (308.15 K, x1 = 0.303): 1495.6 kg/m3
- mass density (308.15 K, x1 = 0.396): 1489.1 kg/m3
- mass density (308.15 K, x1 = 0.599): 1471.1 kg/m3
- mass density (308.15 K, x1 = 0.799): 1438.6 kg/m3
- mass density (313.15 K, x1 = 0.099): 1499.7 kg/m3
- mass density (313.15 K, x1 = 0.204): 1495.3 kg/m3
- mass density (313.15 K, x1 = 0.303): 1490.3 kg/m3
- mass density (313.15 K, x1 = 0.599): 1465.3 kg/m3
- mass density (313.15 K, x1 = 0.799): 1432 kg/m3
- mass density (313.15 K, x1 = 1): 1356.4 kg/m3
- mass density (318.15 K, x1 = 0.051): 1496.7 kg/m3
- mass density (318.15 K, x1 = 0.099): 1494.7 kg/m3
- mass density (318.15 K, x1 = 0.204): 1490.3 kg/m3
- mass density (318.15 K, x1 = 0.303): 1485.1 kg/m3
- mass density (318.15 K, x1 = 0.396): 1478.4 kg/m3
- mass density (318.15 K, x1 = 0.799): 1425.4 kg/m3
- mass density (318.15 K, x1 = 1): 1347.5 kg/m3
- mass density (323.15 K, x1 = 0.051): 1491.7 kg/m3
- mass density (323.15 K, x1 = 0.204): 1485.2 kg/m3
- mass density (323.15 K, x1 = 0.303): 1479.9 kg/m3
- mass density (323.15 K, x1 = 0.396): 1473 kg/m3
- mass density (323.15 K, x1 = 0.599): 1453.8 kg/m3
- mass density (323.15 K, x1 = 0.799): 1418.8 kg/m3
- mass density (323.15 K, x1 = 1): 1338.4 kg/m3
- mass density (328.15 K, x1 = 0.051): 1486.8 kg/m3
- mass density (328.15 K, x1 = 0.099): 1484.7 kg/m3
- mass density (328.15 K, x1 = 0.204): 1480 kg/m3
- mass density (328.15 K, x1 = 0.303): 1474.4 kg/m3
- mass density (328.15 K, x1 = 0.396): 1467.7 kg/m3
- mass density (328.15 K, x1 = 0.599): 1448 kg/m3
- mass density (328.15 K, x1 = 1): 1329.1 kg/m3
- mass density (333.15 K, x1 = 0.051): 1481.9 kg/m3
- mass density (333.15 K, x1 = 0.099): 1479.7 kg/m3
- mass density (333.15 K, x1 = 0.204): 1474.7 kg/m3
- mass density (333.15 K, x1 = 0.303): 1469.3 kg/m3
- mass density (333.15 K, x1 = 0.599): 1442.3 kg/m3
- mass density (333.15 K, x1 = 0.799): 1405.7 kg/m3

Compound: CC(=O)[O-].CC[n+]1ccn(C)c1 + OCC(F)(F)F
- mass density (293.15 K, x2 = 0): 1103.2 kg/m3
- mass density (298.15 K, x2 = 0): 1100 kg/m3
- mass density (303.15 K, x2 = 0): 1097.1 kg/m3
- mass density (308.15 K, x2 = 0): 1094.1 kg/m3
- mass density (323.15 K, x2 = 0): 1085.1 kg/m3
- mass density (328.15 K, x2 = 0): 1082.1 kg/m3
- mass density (333.15 K, x2 = 0): 1079.1 kg/m3

Compound: CC[n+]1ccn(C)c1.O=S(=O)([N-]S(=O)(=O)C(F)(F)F)C(F)(F)F + OCC(F)(F)F
- mass density (293.15 K, x2 = 0): 1523.3 kg/m3
- mass density (298.15 K, x2 = 0): 1518.3 kg/m3
- mass density (303.15 K, x2 = 0): 1513.3 kg/m3
- mass density (318.15 K, x2 = 0): 1498.3 kg/m3
- mass density (323.15 K, x2 = 0): 1493.4 kg/m3
- mass density (328.15 K, x2 = 0): 1488.4 kg/m3
- mass density (333.15 K, x2 = 0): 1483.5 kg/m3

— a compilation of properties of binary mixtures (doi:10.1016/j.jct.2023.107038)
